Hit rate of the full screen: of about 340,000 compounds, about 12,000 (3.5%) were called active. The shares of active, inactive and inconclusive entries below differ from those in the screen. Calls follow the shape of the dose curve; as a rule, active = well fitted inhibition curve with a large enough effect; inconclusive = small, poorly fitted or top-dose-only effect, or another doubt; inactive = no such curve, though single readings can be large or run the other way. Potencies of inconclusive entries are left out as doubtful fits.
Assay: qHTS Assay for Inhibitors of Hepatitis C Virus (HCV)
Settings: Huh7.5.1 HCVcc-Cre (HCVcc is cell-culture hepatitis C virus) infection, luciferase reporter, 44 h; series mostly up to 41.8 µM
In short: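 Seed cells (1,000/well) for 4 h; treat with compound and infect with HCVcc-Cre, moi about 0.5. Incubate 44 h, then detect luciferase activity.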
Potency is read from the fitted curve at half-maximal effect; tags tell the direction and shape of the fitted curve.

| Structure (SMILES) | Potency |
| --- | --- |
| Cc1ccccc1CN(C)C(=O)COC(=O)c1ccc2[nH]c(C)c(C)c2c1 | inconclusive [inhibitor, full curve] |
| COc1ccc(Cl)cc1C(=O)NCc1ccco1 | inconclusive [inhibitor, single point] |
| C/C(=N\NC(=O)c1nn(C)c(C)c1Br)c1ccc(NC(=O)c2ccoc2C)cc1 | inconclusive [inhibitor, full curve, poor fit] |
| COc1ccc(NC(=O)CSc2nc3ccccc3nc2N2CCCC2)c(OC)c1 | inactive |
| O=c1[nH][nH]c(=O)c2cc([N+](=O)[O-])ccc12 | inconclusive [inhibitor, single point] |
| CCOC(=O)N1CCN(C(=O)C2CCN(c3ncnc4c3sc3cccc(F)c34)CC2)CC1 | inconclusive [inhibitor, partial curve] |
| COc1ccc(-c2ccc(Nc3ccc(C(=O)N4CCOCC4)cc3)nn2)cc1OC | inconclusive [inhibitor, single point] |
| COC(=O)c1sc(N2CCCCC2)c(C#N)c1N | inconclusive [inhibitor, single point] |
| O=C(Nc1cccc(S(=O)(=O)N2CCCCC2)c1)c1ccc2c(c1)OCO2 | inconclusive [inhibitor, full curve] |
| COc1cc2nc(NC(=O)c3ccccc3)[nH]c(=O)c2cc1OC | inconclusive [inhibitor, single point] |
| Cc1csc(NC(=O)c2c(O)c3c(n(CC(C)C)c2=O)CCCC3)n1 | inconclusive [inhibitor, single point] |
| O=[N+]([O-])c1ccc(NNC(=S)Nc2ccccc2)cc1 | active: 11.2 µM |
| COc1ccc(C)cc1S(=O)(=O)N1CCN(C(=O)c2ncoc2-c2cccc(F)c2)CC1 | inconclusive [inhibitor, single point] |
| Nc1nc2c(s1)CCc1c-2cnn1-c1ccccc1 | inconclusive [inhibitor, partial curve] |
| CCOc1cc(C(=O)OCC(=O)c2cc(C)n(CC3CCCO3)c2C)ccc1OCC(=O)N1CCOCC1 (stereo not drawn) | inconclusive [inhibitor, single point] |
| c1csc(-c2nn3c(Cn4cnc5ccccc54)nnc3s2)c1 | inactive |
| COc1c(Cl)cnn(-c2ccc(Cl)c(Cl)c2)c1=O | inconclusive [inhibitor, single point] |
| CCOC(=O)c1cccc(NC(=O)C2CCCN2S(=O)(=O)c2cccc3cccnc23)c1 (stereo not drawn) | inconclusive [inhibitor, single point] |
| Cn1cc(CN(CCCN2CCOCC2)C(=S)Nc2cccc(Cl)c2)c2ccccc21 | active: 8.91 µM |
| Cc1ccc(N2CC(C(=O)Nc3c4c(nn3C(C)(C)C)CS(=O)(=O)C4)CC2=O)cc1C (stereo not drawn) | inactive |
| CCC(C(=O)Nc1cccc(S(=O)(=O)N(C)c2ccccc2)c1)c1ccccc1 (stereo not drawn) | inconclusive [inhibitor, partial curve] |
| CCOc1ccc(CCNC(=O)CSCC(=O)Nc2cccc(C)c2)cc1OCC | inconclusive [inhibitor, partial curve, poor fit] |
| CCC(C)(C)NC(=O)C(c1ccc(OC)cc1)N(Cc1cccs1)C(=O)CCC(=O)Nc1cc(C)on1 (stereo not drawn) | inconclusive [inhibitor, partial curve] |

| Structure (SMILES) | Potency |
| --- | --- |
| Cc1cc(OCC(=O)NC2CCN(Cc3ccccc3)CC2)c2c(C)cc(=O)oc2c1 | inconclusive [inhibitor, single point] |
| O=C(CCCN1C(=O)/C(=C\c2ccccc2)SC1=S)N1CCOCC1 | inconclusive [inhibitor, partial curve] |
| Cc1ccc(C)c(-n2cc(CNCCCn3cccn3)c(-c3ccccc3)n2)c1 | inconclusive [inhibitor, single point] |
| COc1ccc(C(=O)NC(=S)NCc2ccc(-c3nc4ccccc4o3)cc2)cc1OC | inconclusive [inhibitor, partial curve] |
| O=C(NCCN1CCN(c2cccc(Cl)c2)CC1)c1ccc(CSc2nc3ccncc3[nH]2)cc1 | inconclusive [inhibitor, single point] |
| Cc1cc(C)cc(OCc2nc(-c3cccnc3)no2)c1 | inactive |
| CCOC(=O)c1ccc(S(=O)(=O)Nc2cc(C(=O)O)ccc2Cl)cc1 | inactive |
| COc1ccc(-c2cc(C)no2)cc1S(=O)(=O)Nc1ccccc1 | inconclusive [inhibitor, single point] |
| CCCC1=Nc2cc(C(=O)NCc3ccco3)ccc2Sc2ccccc21 | inconclusive [inhibitor, single point] |
| CCOC(=O)C1(CC2CC2)CCN(Cc2ccc3cccc(F)c3n2)CC1 | inconclusive [inhibitor, single point] |
| O=[N+]([O-])c1ccc(SNc2ccccc2)c([N+](=O)[O-])c1 | inactive |
| Cc1cc(C)c(C(=O)N(CCN(C)C)CC2CCCN(Cc3ccccc3F)C2)o1 (stereo not drawn) | inactive |
| CCN(CC)CP(=O)(c1ccccc1)c1ccccc1 | inactive |
| COc1ccc(-c2cc(C(F)(F)F)nc(N3CCN(C)CC3)n2)cc1 | inconclusive [inhibitor, partial curve] |
| O=C(Nc1ccc2nsnc2c1)c1ccc2c(c1)OCO2 | inactive |
| COc1ccc(OC)c2sc(N(CCN(C)C)C(=O)c3ccc4ccccc4c3)nc12 | inconclusive [inhibitor, partial curve] |
| C/C(=N\NC(=O)c1ccc(NS(=O)(=O)c2cccs2)cc1)c1ccc(Cl)cc1 | inconclusive [inhibitor, partial curve] |
| COc1ccc(C(C(=O)NC2CCCCC2)N(C(=O)CCl)c2ccc(OC)cc2)cc1 (stereo not drawn) | active: 1 µM |
| Cc1ccc(-c2nn(-c3ccc(F)cc3)cc2C(=O)NCC(c2cccs2)N2CCOCC2)cc1 (stereo not drawn) | inactive |
| Clc1ccc(OCc2nnc3n2N=C(c2ccc4c(c2)OCCO4)CS3)c(Cl)c1 | inconclusive [inhibitor, full curve, poor fit] |
| c1ccc(-c2nnc(-c3ccccn3)nn2)nc1 | inconclusive [inhibitor, single point] |
| OCCSc1nc(N2CCOCC2)nc(N2CCOCC2)n1 | inconclusive [inhibitor, single point] |
| O=C(NCc1ccccc1)c1cccc(COc2ccccc2Cl)c1 | inconclusive [inhibitor, single point] |

| Structure (SMILES) | Potency |
| --- | --- |
| Cc1ccc(C(=O)NCc2nnc(SCC(=O)NC(C)c3ccccc3)n2C)cc1 (stereo not drawn) | inactive |
| Cc1ccc(-c2ccc(CCC(=O)O)n2NC(=O)c2cccs2)cc1 | inactive |
| CC(=O)NN1C(=O)c2ccc3c4c(ccc(c24)C1=O)C(=O)N(NC(C)=O)C3=O | active: 10 µM |
| CCN1CCN(c2ccc(S(=O)(=O)N3CCCCC3)cc2NC(=O)c2cccc(C)c2)CC1 | inactive |
| CSc1ccccc1C(=O)N(C)C(c1ccccc1)c1ccccc1 | inconclusive [inhibitor, single point] |
| O=C(NCCN1CCCC1)c1ccc(Cn2c(=S)[nH]c3cc4c(cc3c2=O)OCO4)cc1 | inconclusive [inhibitor, partial curve] |
| Nn1c(CSc2nc3ccccc3o2)nnc1CSc1nc2ccccc2o1 | inconclusive [inhibitor, full curve, poor fit] |
| COC(=O)[C@@H](Cc1ccccc1)NC(=O)NCCc1ccc(OC)c(OC)c1 | inactive |
| CC(C)(C)C(=O)NC(c1ccccc1)c1c(O)ccc2ccccc12 (stereo not drawn) | inconclusive [inhibitor, single point] |
| CC1C(=O)N(Cc2ccc([N+](=O)[O-])cc2)c2ccccc2N1C(=O)C1CC1 (stereo not drawn) | inconclusive [inhibitor, single point] |
| COc1cc(C(=O)Nc2cccc(-c3nc4cc(C)ccc4o3)c2)cc(OC)c1OC | inconclusive [inhibitor, partial curve] |
| CCCCCn1nc(C)c(/C=N/NC(=O)c2ccoc2C)c1C | inconclusive [inhibitor, full curve] |
| Cc1noc2ncnc(Sc3ccc(Br)cc3)c12 | active: 31.6 µM |
| CCN(CC(=O)Nc1cc(Cl)ccc1C)C(=O)CSCc1c(C)noc1C | inconclusive [inhibitor, single point] |
| CCOc1ccc(NC(=NCc2ccc3c(c2)OCO3)SC2CC(=O)N(c3ccc(OCC)cc3)C2=O)cc1 (stereo not drawn) | inconclusive [inhibitor, single point] |
| CC(C)C[C@H]1CN=C(Nc2ccccc2)N1CCC(C)c1ccccc1 (stereo partly drawn) | inconclusive [inhibitor, single point] |
| COc1ccccc1C1C(C#N)=C(N)Oc2cc(C)n(Cc3ccccn3)c(=O)c21 (stereo not drawn) | inactive |
| Cc1nc2sc(-c3ccccc3)cc2c(=O)[nH]1 | active: 10 µM |
| COc1cc2sc3cc(NCC[C@@H]4CCCN4C)ccc3c(=O)c2cc1OC | inconclusive [inhibitor, full curve] |
| CCCc1cc(C(=O)N2CCCC(N3CCN(c4ccccc4C)CC3)C2)n(C)n1 (stereo not drawn) | inconclusive [inhibitor, single point] |
| CCc1ccc(-c2nc(CS(=O)CC(=O)NCCc3ccccc3)c(C)o2)cc1 (stereo not drawn) | inconclusive [inhibitor, single point] |
| O=C(COC(=O)/C=C/c1cc(Br)ccc1F)NC1CC1 | inactive |

From PubChem BioAssay AID651820 (National Center for Advancing Translational Sciences (NCATS), 2012)
